Our source for the survival values is PubChem BioAssay AID463173 (ICCB-Longwood Screening Facility, Harvard Medical School, 2010).

Molecules are shown by their SMILES. The campaign covered roughly 52,000 compounds. About 1,700 (3.3%) were called active. No stated cut-off is given here; in the data, active means survival mostly below about 52% (no sharp cut-off); inactive means mostly above about 56%. This is one part of the list.

The assay concerns Wild type. Description: S. aureus survival, RN4220 and DeltatarO strains – OD600, teichoic acid synthesis inhibitors, primary screen (AID 463173). As to conditions: S. aureus RN4220 wild type/DeltatarO growth, OD600, 18 h, stronger effect = lower value, screened at 18.75 µg/mL (by protocol).
For `Cc1cc(C)n(-c2nc3ccccc3nc2Nc2ccc(C(C)C)cc2)n1`, the survival was active: 5%.
Consider `Cc1cc(C)c(NC(=O)C(C)n2c(=O)cc(C)c3c(C)nn(-c4ccccc4)c32)c(C)c1` (centres undefined), for which the survival is inactive: 68%.
For the compound `CCN(CCCNC(=O)CSc1cc(=O)n(C)c2ccccc12)c1ccccc1`, the survival was inactive: 77%.
For `O=C(Nc1ccc(Cl)cc1Cl)c1cc(S(=O)(=O)N2CCC3(CC2)OCCO3)ccc1F`, the survival was inactive: 72%.
For `CCOc1cccc(NC(=O)C2CC(=O)N(C)C(=Nc3cccc(OC)c3)S2)c1` (centres undefined) the value was inactive: 84%; for `O=C(NCc1cccc(F)c1)C1CCN(c2nc3ccccc3nc2C(F)(F)F)CC1`, inactive: 83%.
On to `CC(=O)N1CCc2c(sc3c2c(=O)n(-c2ccccc2)c(=O)n3CC(=O)c2ccc(Cl)cc2)C1`, for which the survival is inactive: 91%.
The value for `COCCNC(=O)CCn1c(=O)c2cc(OC)c(OC)cc2n(CC(=O)Nc2ccc(F)c(Cl)c2)c1=O` was inactive: 66%.
For `O=C(O)c1ccc(Nc2nc3ccccc3c3nncn23)cc1` the value was inactive: 90%; for `COc1ccccc1NC(=O)C(Cc1ccccc1)NS(=O)(=O)c1ccc2c(c1)CCN2C(C)=O` (centres undefined), inactive: 80%.
Take `CC(=O)N1CCOc2cc(S(=O)(=O)NCc3ccccc3Cl)c(C)cc21`: the survival was inactive: 81%.
The value for `Cc1cc(C)c(NC(=O)Cn2c(=O)n(-c3cccc(C(F)(F)F)c3)c(=O)c3c(C)c(C)sc32)c(C)c1` was inactive: 87%; that for `Nc1ccc(N2CCOCC2)cc1C(F)(F)F` was inactive: 110%.
`CCc1ccccc1Nc1nn2c(=O)c3ccc(C(=O)NCc4ccc(C)cc4)cc3nc2s1`: the survival is inactive: 92%.
In the case of `COCCCNC(=O)c1ccc(Cn2c(=O)c3ccccc3n(CC(N)=O)c2=O)cc1`, the survival is inactive: 71%.
For the compound `CC(C)(C)C(=O)Nc1cc(-c2cccc(Br)c2)nn1-c1ccccc1`, the survival is inactive: 68%.
Regarding `CCC(=O)N1c2ccccc2CC1C(=O)NCCCN1CCN(c2cc(C)ccc2C)CC1` (centres undefined), the survival is inactive: 136%.
With `COc1ccc(-c2cc3nc(N)cc(=O)n3[nH]2)cc1`, the survival was inactive: 133%.
For `CCN(C(=O)c1ccc2c(c1)N(Cc1cccc(Cl)c1)C(=O)c1ccccc1S2=O)c1ccccc1` (centres undefined) the value was active: 0%; for `CC(C)c1ccc2oc(-c3ccc(Cl)c(NC(=O)c4cccs4)c3)nc2c1`, active: 2%.
As to `COC(=O)C1=C(N)OC2=C(C(=O)CCC2)C1c1ccc(OC)cc1` (centres undefined), the survival was inactive: 118%.
For `O=C(NCCCc1nc2ccccc2n1Cc1ccc(F)cc1)C1CCCCC1` the value was inactive: 98%.
The value for `Cc1ccc(C)c(CSc2nc3c([nH]c4ccccc43)c(=O)n2C)c1` was inactive: 68%; that for `COc1ccc(NC(=O)c2cc(S(=O)(=O)N3CCOCC3)cn2C)cc1Cl` was inactive: 111%.
